This is an account of results in the supplement of paper PMC3334620.

The full ranking holds about 33,000 sequences; the median of “E-score (-0.5 to 0.5)” is about -0.017, and the highest 2% start at about 0.3. The list shows a part of the results.

In the test the target is T1, Sut1 (UniProt P53032).
T1 sequence: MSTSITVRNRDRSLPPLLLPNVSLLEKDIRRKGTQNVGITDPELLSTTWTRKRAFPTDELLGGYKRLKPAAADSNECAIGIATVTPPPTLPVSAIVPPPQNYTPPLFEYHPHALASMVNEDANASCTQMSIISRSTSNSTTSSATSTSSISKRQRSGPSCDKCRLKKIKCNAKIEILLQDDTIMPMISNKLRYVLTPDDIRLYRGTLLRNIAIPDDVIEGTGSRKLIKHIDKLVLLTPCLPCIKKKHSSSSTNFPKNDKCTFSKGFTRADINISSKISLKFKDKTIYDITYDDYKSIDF
The experiment in a line: PBM E-score (8-mer binding enrichment) (E-score (-0.5 to 0.5)); higher = stronger / more preferred TF binding; most listed sequences are background and not binding sites. The settings on record: protein concentration: 200 nM; construct: GST-full length. The method, then:
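Universal 'all 10-mer' protein binding microarrays (Agilent AMADID 015681) probed with GST-tagged S. cerevisiae TFs (full-length or DBD) made by in vitro transcription/translation (PURExpress), about 100-200 nM. Bound TF was detected with fluorescent anti-GST. Each ungapped 8-mer (which stands for itself and its reverse complement) is scored by the PBM enrichment score (E-score), a modified Wilcoxon-Mann-Whitney statistic from -0.5 to +0.5, computed with the Universal PBM Analysis Suite. Scale: above 0.35 generally sequence-specific binding.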
As to AAATTACC, the “PBM E-score” value stood at 0.105.
Under GAGAAAAC stands 0.0743; under AAAAAAAT, 0.271.
Turning to GAAAACGA, the “PBM E-score” value came out at 0.193.
On to CTCAGAGC, for which the “PBM E-score” value was -0.294.
On to TGGTAACA, for which the “PBM E-score” value was 0.0878.
On to CGCGCCTA, for which the “PBM E-score” value worked out at 0.0294.
For the sequence GAGCAGAA, the “PBM E-score” value was -0.139.
ACTTGGAT: the “PBM E-score” value came to 0.109.
Turning to GGATAGGA, the “PBM E-score” value is -0.0216.
For the sequence TGAGTAAA, the “PBM E-score” value is 0.0705.
In the case of TTAAATAA, the “PBM E-score” value worked out at 0.259.
Consider ACAAGGCG, for which the “PBM E-score” value was -0.0134.
TCGCGCAA: the “PBM E-score” value worked out at 0.00429.
Regarding ATCCGTAA, the “PBM E-score” value is 0.183.
With CGTGGAGC, the “PBM E-score” value was -0.031.
Turning to CAGGAATG, the “PBM E-score” value is -0.191.
For AACACATT, the “PBM E-score” value is 0.149.
CAACACTA: the “PBM E-score” value came to 0.136.
As to ACTATGCT, the “PBM E-score” value was determined as 0.0189.
Regarding GAAATGGA, the “PBM E-score” value was -0.0628.
Under AGTTGTCG stands 0.0993; under ACCCGCGA, -0.185; under AGATGTCG, -0.00069.
Take AACTCGGG: the “PBM E-score” value is -0.135.
For the sequence CCTAAGAC, the “PBM E-score” value was -0.174.
On to AGGCGGCA, for which the “PBM E-score” value is -0.147.
With GGCAACCC, the “PBM E-score” value was -0.149.
Under CATGGTCG stands -0.0254.
CATTCATA: the “PBM E-score” value came out at 0.175.
Under ACCCTAAG stands -0.043; under AGTCTCGC, -0.00891.
Consider CTAGGGCA, for which the “PBM E-score” value is -0.186.
Regarding TAGGTGAA, the “PBM E-score” value turned out to be 0.0665.
Turning to ATGTGTTA, the “PBM E-score” value came out at 0.218.
Turning to CTCCCCAG, the “PBM E-score” value is -0.385.
Take AAAGCCTA: the “PBM E-score” value is -0.0556.
As for TCTCTTCA, the figure is 0.0405; as for CGCGTAAA, 0.0235; as for GCGACCAA, 0.13.
Under AACGGCAA stands -0.00689; under GAATCCTA, 0.191.
As to ATGCATCC, the “PBM E-score” value was 0.114.
As for CCCGGTAC, the “PBM E-score” value is -0.128.
On to ATGCATAA, for which the “PBM E-score” value stood at 0.155.
Regarding CCTGCACA, the “PBM E-score” value is -0.182.
CTTGGTGC: the “PBM E-score” value was -0.165.
Turning to CAAACATG, the “PBM E-score” value was -0.0582.
As to ACCTTGGC, the “PBM E-score” value was -0.142.
Under TGCGTCCA stands -0.137.
AGTTCGTA: the “PBM E-score” value was 0.0376.
Turning to AGCCAAAA, the “PBM E-score” value worked out at 0.104.
Regarding ACGTCGTC, the “PBM E-score” value is -0.163.
On to CACAATAC, for which the “PBM E-score” value is -0.104.
As to CTTGGTTC, the “PBM E-score” value was determined as 0.0679.
For CTTCCGCA, the “PBM E-score” value was 0.0462.
As for CTATGGAA, the “PBM E-score” value was 0.0576.
Regarding CGAGTGGC, the “PBM E-score” value was -0.155.
As to ACATATCA, the “PBM E-score” value was 0.221.
On to CTGGAAAG, for which the “PBM E-score” value is -0.209.
In the case of AAGCCGGG, the “PBM E-score” value was -0.113.
On to TCCCTACA, for which the “PBM E-score” value is -0.012.
AAAGGGGC: the “PBM E-score” value was -0.00804.
Take GAATACCA: the “PBM E-score” value came to 0.0475.
As to GTAGGAAC, the “PBM E-score” value is -0.074.
CGTTGTGA: the “PBM E-score” value is -0.144.
As for CGGCATAA, the “PBM E-score” value was 0.0597.
As to GACTATGA, the “PBM E-score” value came out at 0.165.
As for CCCAAGTC, the figure is -0.145.
In the case of CACAGAAA, the “PBM E-score” value turned out to be 0.0833.
Consider CCTCTCAC, for which the “PBM E-score” value is -0.175.
For GAAACGCA, the “PBM E-score” value came out at 0.026.
As for TTAACCAA, the figure is 0.105; as for CTGCCTCC, -0.178; as for CTCAGGGC, -0.294.
In the case of ATCTTCAT, the “PBM E-score” value is 0.085.
Under CTTGTTTC stands 0.0336.
Consider GATGAACA, for which the “PBM E-score” value is 0.0811.
For the sequence ACCCTCTA, the “PBM E-score” value is -0.245.
Under AACGACAC stands 0.106.
Under ATCCGGAA stands 0.303.
Take ATAGTCCC: the “PBM E-score” value was -0.206.
Under CATCTTTA stands -0.0174; under AAAATTAT, 0.351; under AACTGCGT, -0.0565.
Take ACATGGAT: the “PBM E-score” value was -0.0533.
